Laboratory results taken from PubChem BioAssay AID588855 (National Center for Advancing Translational Sciences (NCATS), 2011).
Hit rate of the full screen: of about 410,000 compounds, about 5,000 (1.2%) were called active. This list was built around the results that the source calls inconclusive (neither active nor inactive); the mix of calls is not that of the screen. Calls come from the whole dose curve; as a rule, active = well fitted inhibition curve with a large enough effect; inconclusive = small, poorly fitted or top-dose-only effect; inactive = no such curve, though single readings can be large or run the other way. Potencies beside an inconclusive call are fits to weak or partial responses and may not hold up. Where a structure was tested more than once in an assay, its records may differ in their call.

Test: qHTS for Inhibitors of TGF-b; note: nearly all actives have a fitted effect of over 65% in size
Settings: HepG2 CAGA-GFP TGF-b/SMAD3 reporter, GFP fluorescence, 18 h, TGF-beta stimulated, 500 pg/mL final; series mostly up to 46.1 µM; activity, negative = inhibition: at the top concentration
Summary of the method: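 First, reporter cells (HEPG2 CAGA-GFP) rested 2 h at 37 degrees C. Next, compounds were pinned in and TGF-beta added to 500 pg/mL final. After 18 h, GFP was imaged per cell and summed per well.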
% is set by controls: 0 for no effect and ±100 for the full control effect; potency is the fitted concentration of half-maximal effect; tags give direction and shape of the fitted curve.

**Q.** Which Potency does the source give for C(=C\c1c[nH]c2ccccc12)/c1ccnc2ccccc12 here?
**A.** Its Potency is inconclusive: 35.5 µM [inhibitor, single point].

**Q.** For CC[n+]1cc(C)ccc1/C=C/c1ccc(N(C)C)cc1, which Potency is on record?
**A.** The Potency was inconclusive: 7.94 µM [inhibitor, partial curve].

**Q.** For O=C(CSc1nc(C2CC2)nc2sc3c(c12)CCCC3)NCc1ccco1, which “activity, negative = inhibition” value is on record?
**A.** The value was inactive: -3.14%.

**Q.** With Cc1cccc(C(=O)Nc2ccc3nc(SCCOc4ccccc4)sc3c2)c1 as the compound, how does the Potency read?
**A.** The Potency was inconclusive: 5.62 µM [inhibitor, single point].

**Q.** With CN(C(=O)c1cccc(NC(=O)Cc2ccc([N+](=O)[O-])cc2)c1)C1CCC1 as the compound, how does the Potency read?
**A.** The Potency was inconclusive: 8.91 µM [inhibitor, partial curve, poor fit].

**Q.** For COc1cccc(NC(=O)CSc2nnc(-c3ccco3)c(-c3ccco3)n2)c1, which “activity, negative = inhibition” value is on record?
**A.** Its value is inactive: -21.4%.

**Q.** With COc1cccc(CN(C)C(=O)CSc2nc3ccccc3[nH]2)c1OC as the compound, how does the “activity, negative = inhibition” value read?
**A.** The value was inactive: 12.9%.

**Q.** For Cc1cccc(CCN(C(=O)c2csnn2)C(C(=O)NC2CCCC2)c2ccco2)c1 (stereo unspecified), which Potency is on record?
**A.** Its Potency is inconclusive: 5.62 µM [inhibitor, single point].

**Q.** For CCC(c1nnnn1Cc1cccs1)N1CCN(C2CCCC2)CC1 (stereo unspecified), which “activity, negative = inhibition” value is on record?
**A.** The value was inactive: 10.4%.

**Q.** With CC(C)c1ccc(/C=C/C(=O)NC(=S)Nc2ccc(CN3CCOCC3)cc2)cc1 as the compound, how does the Potency read?
**A.** Its Potency is inconclusive: 22.4 µM [inhibitor, partial curve, poor fit].

**Q.** With Cc1nc(-c2cccc(-c3noc(C)n3)c2)no1 as the compound, how does the Potency read?
**A.** Its Potency is inconclusive: 35.5 µM [inhibitor, single point].

**Q.** Which Potency does the source give for COCC(=O)N/N=C\c1ccc(OC/C=C/c2ccccc2)c(OC)c1 here?
**A.** The Potency was inconclusive: 35.5 µM [inhibitor, single point].

**Q.** Which Potency does the source give for CC(C)(C)[C@H]1CCC(=O)N([C@H](CSc2ccccc2)Cc2ccccc2)CC1 here?
**A.** Its Potency is active: 11.2 µM.

**Q.** With NC(=O)COc1ccccc1C(=O)Nc1ccccc1 as the compound, how does the “activity, negative = inhibition” value read?
**A.** Its value is inactive: 5.23%.

**Q.** With CCc1ccc(CCC(=O)Nc2sc(C)c(C)c2C(=O)OC)o1 as the compound, how does the Potency read?
**A.** The Potency was inconclusive: 6.31 µM [inhibitor, single point].

**Q.** For COC(=O)C1(Cc2cc(-c3ccccc3)no2)CCN(C(=O)OC(C)(C)C)CC1, which Potency is on record?
**A.** Its Potency is inconclusive: 31.6 µM [inhibitor, single point].

**Q.** With CCOc1ccc(-n2c(SCC(N)=O)nc3c(oc4ccccc43)c2=O)cc1 as the compound, how does the Potency read?
**A.** The Potency was inconclusive: 7.08 µM [inhibitor, partial curve, poor fit].

**Q.** For CCN1C(=O)/C(=C\c2nc3ccccc3c(=O)n2CC)c2ccccc21, which “activity, negative = inhibition” value is on record?
**A.** Its value is inactive: 0.38%.

**Q.** For S=C(Nc1ccc2c(c1)OCO2)Nc1ccccc1Cl, which Potency is on record?
**A.** The Potency was inconclusive: 35.5 µM [inhibitor, partial curve, poor fit].

**Q.** With Cc1c(C(=O)NCc2ccc(C(F)(F)F)cc2)sc(=O)n1Cc1ccc(S(=O)(=O)N(C)C)cc1 as the compound, how does the Potency read?
**A.** The Potency was inconclusive: 35.5 µM [inhibitor, single point].

**Q.** With C=CCc1cccc(/C=N/NC(=O)CNc2ccccc2)c1O as the compound, how does the Potency read?
**A.** Its Potency is inconclusive: 35.5 µM [inhibitor, single point].

**Q.** With CCN1C/C(=C/c2sccc2C)c2nc3ccccc3c(C(=O)O)c2C1 as the compound, how does the “activity, negative = inhibition” value read?
**A.** The value was inactive: -8.69%.

**Q.** With CN(CC(=O)Nc1cccc2ccccc12)C(=O)/C=C/c1cccs1 as the compound, how does the Potency read?
**A.** Its Potency is inconclusive: 11.2 µM [inhibitor, single point].

**Q.** Which Potency does the source give for Cc1ccc(C(NC(=O)NC(C)c2ccccc2)C(Cl)(Cl)Cl)cc1F (stereo unspecified) here?
**A.** The Potency was inconclusive: 25.1 µM [inhibitor, single point].

**Q.** For CC1(C)CC(=O)C2=C(C1)NC1=C(C(=O)c3ccccc31)C2c1ccc(Cl)cc1 (stereo unspecified), which Potency is on record?
**A.** The Potency was inconclusive: 28.2 µM [inhibitor, single point].

**Q.** For C[C@H](NC(=O)c1[nH]cnc1C(=O)Nc1ccc(CNC(=O)OC(C)(C)C)cc1)C(=O)OCc1ccccc1, which Potency is on record?
**A.** The Potency was inconclusive: 35.5 µM [inhibitor, single point].

**Q.** With CCOc1cc(C(C(=O)NCC2CCCO2)N(C(=O)Cn2nnc3ccccc32)c2ccccc2OC)ccc1O (stereo unspecified) as the compound, how does the “activity, negative = inhibition” value read?
**A.** Its value is inactive: -2.48%.

**Q.** Which Potency does the source give for CCOc1ccc(CN(C)c2ccc(S(=O)(=O)N3CCN(C)CC3)cc2[N+](=O)[O-])cc1OC here?
**A.** The Potency was inconclusive: 11.2 µM [inhibitor, partial curve].

**Q.** For O=C(CCCSc1ccc(Cl)cc1)Nc1cc(S(=O)(=O)N2CCOCC2)ccc1O, which Potency is on record?
**A.** The Potency was inconclusive: 35.5 µM [inhibitor, single point].

**Q.** With O=C(CCn1nc(-c2ccc(Cl)cc2)ccc1=O)NCCc1ccccc1 as the compound, how does the Potency read?
**A.** Its Potency is inconclusive: 35.5 µM [inhibitor, single point].

**Q.** Which Potency does the source give for COc1ccc(CCN2C(=O)c3[nH]nc(-c4ccccc4O)c3C2c2ccc(OC)c(OC)c2)cc1 (stereo unspecified) here?
**A.** The Potency was inconclusive: 35.5 µM [inhibitor, single point].

**Q.** Which Potency does the source give for CCOC(=O)c1c(NC(=O)CSc2cn(CCNC(=O)c3c(F)cccc3F)c3ccccc23)sc2c1CCC2 here?
**A.** Its Potency is inconclusive: 7.08 µM [inhibitor, partial curve, poor fit].

**Q.** With CN1CCC(=C(c2ccccc2)c2ccc(Br)cc2)CC1 as the compound, how does the Potency read?
**A.** The Potency was inconclusive: 35.5 µM [inhibitor, single point].

**Q.** For CC(O)(c1cccc(F)c1)c1nc(-c2cnc3ccccc3c2)cs1 (stereo unspecified), which Potency is on record?
**A.** The Potency was inconclusive: 15.8 µM [inhibitor, single point].

**Q.** Which Potency does the source give for O=C1[C@H]2CCCC[C@H]2C(=O)N1CCCCN1CCN(c2nsc3ccccc23)CC1 here?
**A.** Its Potency is inconclusive: 25.1 µM [inhibitor, single point].

**Q.** For C#CCOc1ccc(C2C3=C(COC3=O)Nc3cc4c(cc32)OCO4)cc1OC (stereo unspecified), which Potency is on record?
**A.** Its Potency is inconclusive: 1.26 µM [inhibitor, full curve, poor fit].

**Q.** With COC(=O)C1CCN(S(=O)(=O)c2ccc(N3CCCCS3(=O)=O)cc2)CC1 as the compound, how does the Potency read?
**A.** The Potency was inconclusive: 20 µM [inhibitor, partial curve, poor fit].

**Q.** Which Potency does the source give for C=CCOC(=O)C1=C(C)Nc2nnnn2C1c1ccc(OC)cc1OC (stereo unspecified) here?
**A.** Its Potency is inconclusive: 35.5 µM [inhibitor, single point].

**Q.** Which “activity, negative = inhibition” value does the source give for Cc1c(-c2nc(-c3ccc4c(c3)OCO4)no2)nnn1-c1ccc(C(C)C)cc1 here?
**A.** Its value is inactive: 7.47%.

**Q.** For CC(C)C(=O)N(Cc1cc2ccccc2[nH]c1=O)C(C)(C)C, which Potency is on record?
**A.** Its Potency is inconclusive: 6.31 µM [inhibitor, single point].

**Q.** For O=C(COc1ccc(S(=O)(=O)Nc2ccc(Cl)cc2)cc1)N1CCOCC1, which Potency is on record?
**A.** Its Potency is inconclusive: 6.31 µM [inhibitor, full curve, poor fit].

**Q.** With CC1=C(C(=O)OC2CCCCCCC2)C(c2cc3c(cc2Br)OCO3)CC(=O)N1 (stereo unspecified) as the compound, how does the Potency read?
**A.** Its Potency is inconclusive: 35.5 µM [inhibitor, single point].

**Q.** With Cc1ccc(-c2nc(C(=O)NCc3ccccc3Cl)c3n2CCCCC3)cc1 as the compound, how does the Potency read?
**A.** Its Potency is inconclusive: 25.1 µM [inhibitor, single point].

**Q.** With Cc1ccc(-c2nn(-c3ccccc3)cc2CO)cc1 as the compound, how does the “activity, negative = inhibition” value read?
**A.** Its value is inactive: 2.49%.

**Q.** For CN1C[C@@H]2C(c3ccccc3)C3(c4ccccc4)CC2(C3)[C@H]1c1ccccc1 (stereo partly specified), which “activity, negative = inhibition” value is on record?
**A.** The value was inactive: -28.5%.

**Q.** Which “activity, negative = inhibition” value does the source give for CCc1nnc(SCC(=O)Nc2ccc(N3CCOCC3)cc2)n1C here?
**A.** The value was inactive: -0.924%.

**Q.** Which “activity, negative = inhibition” value does the source give for CN(C(=O)Cc1ccccc1OC(=O)c1ccccc1)c1ccccc1I here?
**A.** The value was inactive: -8.58%.

**Q.** Which Potency does the source give for O=c1c2ccccc2nc(/C=C/c2ccc3c(c2)OCO3)n1CCCO here?
**A.** Its Potency is inconclusive: 0.708 µM [inhibitor, full curve].

**Q.** Which Potency does the source give for Cc1ccc(Cl)cc1NC(=O)Nc1cccc(OCc2cc(=O)n3ccccc3n2)c1 here?
**A.** Its Potency is inconclusive: 12.6 µM [inhibitor, partial curve].

**Q.** With CC(C)(C)NCCOc1ccc2ccccc2c1 as the compound, how does the “activity, negative = inhibition” value read?
**A.** Its value is inactive: -4.47%.

**Q.** With O=C(CCNC(=O)c1ccccc1Cl)Nc1nc(-c2ccccc2Cl)cs1 as the compound, how does the Potency read?
**A.** Its Potency is inconclusive: 20 µM [inhibitor, partial curve, poor fit].

**Q.** With COc1ccc(-n2c(-c3ccco3)nc3c(cnn3-c3ccccc3Cl)c2=O)cc1 as the compound, how does the Potency read?
**A.** Its Potency is inconclusive: 12.6 µM [inhibitor, partial curve, poor fit].

**Q.** For CN(CC(=O)Nc1ccccc1C(F)(F)F)C(=O)C1=COCCO1, which Potency is on record?
**A.** The Potency was inconclusive: 20 µM [inhibitor, single point].

**Q.** Which Potency does the source give for CC1=CC(C)(C)NC(=S)N1c1cc(C)cc(C)c1 here?
**A.** The Potency was inconclusive: 35.5 µM [inhibitor, single point].

**Q.** Which Potency does the source give for CN(NC1CC(=O)N(c2ccccc2)C1=O)c1ccccc1 (stereo unspecified) here?
**A.** The Potency was inconclusive: 4.47 µM [inhibitor, single point].

**Q.** Which Potency does the source give for Cc1ccc(-n2nc(C(=O)c3ccccc3)n3c(=O)c(Cc4ccccc4)nnc23)cc1 here?
**A.** The Potency was inconclusive: 35.5 µM [inhibitor, single point].

**Q.** Which Potency does the source give for CCCCCn1c(CN2CCN(c3ccc(OC)cc3)CC2)nc2c1c(=O)[nH]c(=O)n2C here?
**A.** The Potency was inconclusive: 14.1 µM [inhibitor, single point].

**Q.** With COc1ccc(Oc2c(OC)cc(NCc3ccc(CN)cc3)c3ncccc23)cc1 as the compound, how does the “activity, negative = inhibition” value read?
**A.** The value was inactive: -12.3%.

**Q.** With O=S(=O)(Nc1ccc(O)c2ccccc12)c1ccc(OC(F)(F)F)cc1 as the compound, how does the Potency read?
**A.** The Potency was inconclusive: 28.2 µM [inhibitor, single point].

**Q.** Which Potency does the source give for CCOc1ccc(C(=O)/C=C/c2cn(CN3CCN(C)CC3)c3ccccc23)cc1 here?
**A.** The Potency was inconclusive: 22.4 µM [inhibitor, partial curve, poor fit].

**Q.** With CC1C(=O)N(Cc2cn(Cc3ccco3)nn2)CCS(=O)(=O)N1Cc1ccc(-c2ccccc2C(F)(F)F)cc1 (stereo unspecified) as the compound, how does the Potency read?
**A.** Its Potency is inconclusive: 17.8 µM [inhibitor, single point].

**Q.** With Cc1ccc(Cl)cc1NC(=O)c1sc(-n2nc(C)c(Cc3ccc4c(c3)OCO4)c2C)nc1C as the compound, how does the “activity, negative = inhibition” value read?
**A.** Its value is inactive: -4.01%.

**Q.** Which “activity, negative = inhibition” value does the source give for Cc1ccccc1-n1c(-c2ccco2)n[nH]c1=S here?
**A.** Its value is inactive: 0.412%.

**Q.** Which “activity, negative = inhibition” value does the source give for COCCCNc1nnc(Cc2ccccc2)c2ccccc12 here?
**A.** Its value is inactive: -1.18%.

**Q.** Which Potency does the source give for COc1ccc2c(C)cc(Sc3nnnn3-c3ccccc3)nc2c1 here?
**A.** The Potency was inconclusive: 15.8 µM [inhibitor, single point].

**Q.** For O=c1c2ccccc2nc2n1CCN2Cc1ccc(Cl)cc1, which Potency is on record?
**A.** The Potency was inconclusive: 8.91 µM [inhibitor, partial curve, poor fit].
